Assay results reported in paper PMC4682058.
These are yes or no findings as the source states them, for the method shown. In cells and extracts the contact can be indirect. Some entries that bind do so weakly or less than the wild type.

The chains behind the UniProt entries cited, without tags or fusion partners.
UniProt Q5SW79: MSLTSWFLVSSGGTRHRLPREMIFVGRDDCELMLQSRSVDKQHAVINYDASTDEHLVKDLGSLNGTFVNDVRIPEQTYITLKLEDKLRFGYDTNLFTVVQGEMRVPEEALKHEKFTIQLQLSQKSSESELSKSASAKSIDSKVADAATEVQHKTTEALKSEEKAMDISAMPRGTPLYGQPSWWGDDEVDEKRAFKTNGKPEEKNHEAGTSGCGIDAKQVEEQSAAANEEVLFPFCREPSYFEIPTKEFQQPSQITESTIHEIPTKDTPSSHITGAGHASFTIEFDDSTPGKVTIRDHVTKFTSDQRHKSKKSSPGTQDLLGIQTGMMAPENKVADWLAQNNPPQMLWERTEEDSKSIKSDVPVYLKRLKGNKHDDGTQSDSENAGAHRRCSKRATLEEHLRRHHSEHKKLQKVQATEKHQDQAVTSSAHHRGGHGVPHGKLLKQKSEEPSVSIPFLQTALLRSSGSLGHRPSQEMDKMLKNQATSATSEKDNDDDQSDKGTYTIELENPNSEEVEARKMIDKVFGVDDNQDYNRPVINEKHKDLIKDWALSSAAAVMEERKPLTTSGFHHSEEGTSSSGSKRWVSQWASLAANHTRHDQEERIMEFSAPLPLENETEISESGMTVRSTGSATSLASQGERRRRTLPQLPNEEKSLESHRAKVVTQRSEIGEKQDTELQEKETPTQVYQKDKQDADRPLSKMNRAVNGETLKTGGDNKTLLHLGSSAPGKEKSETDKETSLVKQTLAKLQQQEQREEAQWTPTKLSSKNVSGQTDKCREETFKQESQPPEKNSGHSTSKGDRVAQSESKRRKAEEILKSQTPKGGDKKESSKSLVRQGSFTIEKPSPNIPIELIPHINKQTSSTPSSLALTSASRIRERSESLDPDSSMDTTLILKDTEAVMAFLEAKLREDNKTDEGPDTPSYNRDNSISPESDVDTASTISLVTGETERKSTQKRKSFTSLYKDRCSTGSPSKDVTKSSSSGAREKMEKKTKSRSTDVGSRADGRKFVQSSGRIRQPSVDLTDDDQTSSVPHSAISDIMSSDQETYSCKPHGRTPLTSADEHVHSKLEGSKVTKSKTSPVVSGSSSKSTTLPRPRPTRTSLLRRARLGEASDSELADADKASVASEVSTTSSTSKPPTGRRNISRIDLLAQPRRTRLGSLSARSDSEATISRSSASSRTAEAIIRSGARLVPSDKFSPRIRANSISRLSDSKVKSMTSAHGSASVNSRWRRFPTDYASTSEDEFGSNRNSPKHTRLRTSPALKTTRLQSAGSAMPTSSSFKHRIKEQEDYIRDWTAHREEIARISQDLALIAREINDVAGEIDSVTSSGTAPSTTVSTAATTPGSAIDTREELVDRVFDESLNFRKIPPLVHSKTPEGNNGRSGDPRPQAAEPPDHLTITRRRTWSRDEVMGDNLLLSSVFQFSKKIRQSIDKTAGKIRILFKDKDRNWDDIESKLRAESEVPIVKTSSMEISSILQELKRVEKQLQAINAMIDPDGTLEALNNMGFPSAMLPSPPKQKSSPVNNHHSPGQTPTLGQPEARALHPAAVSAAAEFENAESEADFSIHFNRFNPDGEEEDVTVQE
UniProt Q14980: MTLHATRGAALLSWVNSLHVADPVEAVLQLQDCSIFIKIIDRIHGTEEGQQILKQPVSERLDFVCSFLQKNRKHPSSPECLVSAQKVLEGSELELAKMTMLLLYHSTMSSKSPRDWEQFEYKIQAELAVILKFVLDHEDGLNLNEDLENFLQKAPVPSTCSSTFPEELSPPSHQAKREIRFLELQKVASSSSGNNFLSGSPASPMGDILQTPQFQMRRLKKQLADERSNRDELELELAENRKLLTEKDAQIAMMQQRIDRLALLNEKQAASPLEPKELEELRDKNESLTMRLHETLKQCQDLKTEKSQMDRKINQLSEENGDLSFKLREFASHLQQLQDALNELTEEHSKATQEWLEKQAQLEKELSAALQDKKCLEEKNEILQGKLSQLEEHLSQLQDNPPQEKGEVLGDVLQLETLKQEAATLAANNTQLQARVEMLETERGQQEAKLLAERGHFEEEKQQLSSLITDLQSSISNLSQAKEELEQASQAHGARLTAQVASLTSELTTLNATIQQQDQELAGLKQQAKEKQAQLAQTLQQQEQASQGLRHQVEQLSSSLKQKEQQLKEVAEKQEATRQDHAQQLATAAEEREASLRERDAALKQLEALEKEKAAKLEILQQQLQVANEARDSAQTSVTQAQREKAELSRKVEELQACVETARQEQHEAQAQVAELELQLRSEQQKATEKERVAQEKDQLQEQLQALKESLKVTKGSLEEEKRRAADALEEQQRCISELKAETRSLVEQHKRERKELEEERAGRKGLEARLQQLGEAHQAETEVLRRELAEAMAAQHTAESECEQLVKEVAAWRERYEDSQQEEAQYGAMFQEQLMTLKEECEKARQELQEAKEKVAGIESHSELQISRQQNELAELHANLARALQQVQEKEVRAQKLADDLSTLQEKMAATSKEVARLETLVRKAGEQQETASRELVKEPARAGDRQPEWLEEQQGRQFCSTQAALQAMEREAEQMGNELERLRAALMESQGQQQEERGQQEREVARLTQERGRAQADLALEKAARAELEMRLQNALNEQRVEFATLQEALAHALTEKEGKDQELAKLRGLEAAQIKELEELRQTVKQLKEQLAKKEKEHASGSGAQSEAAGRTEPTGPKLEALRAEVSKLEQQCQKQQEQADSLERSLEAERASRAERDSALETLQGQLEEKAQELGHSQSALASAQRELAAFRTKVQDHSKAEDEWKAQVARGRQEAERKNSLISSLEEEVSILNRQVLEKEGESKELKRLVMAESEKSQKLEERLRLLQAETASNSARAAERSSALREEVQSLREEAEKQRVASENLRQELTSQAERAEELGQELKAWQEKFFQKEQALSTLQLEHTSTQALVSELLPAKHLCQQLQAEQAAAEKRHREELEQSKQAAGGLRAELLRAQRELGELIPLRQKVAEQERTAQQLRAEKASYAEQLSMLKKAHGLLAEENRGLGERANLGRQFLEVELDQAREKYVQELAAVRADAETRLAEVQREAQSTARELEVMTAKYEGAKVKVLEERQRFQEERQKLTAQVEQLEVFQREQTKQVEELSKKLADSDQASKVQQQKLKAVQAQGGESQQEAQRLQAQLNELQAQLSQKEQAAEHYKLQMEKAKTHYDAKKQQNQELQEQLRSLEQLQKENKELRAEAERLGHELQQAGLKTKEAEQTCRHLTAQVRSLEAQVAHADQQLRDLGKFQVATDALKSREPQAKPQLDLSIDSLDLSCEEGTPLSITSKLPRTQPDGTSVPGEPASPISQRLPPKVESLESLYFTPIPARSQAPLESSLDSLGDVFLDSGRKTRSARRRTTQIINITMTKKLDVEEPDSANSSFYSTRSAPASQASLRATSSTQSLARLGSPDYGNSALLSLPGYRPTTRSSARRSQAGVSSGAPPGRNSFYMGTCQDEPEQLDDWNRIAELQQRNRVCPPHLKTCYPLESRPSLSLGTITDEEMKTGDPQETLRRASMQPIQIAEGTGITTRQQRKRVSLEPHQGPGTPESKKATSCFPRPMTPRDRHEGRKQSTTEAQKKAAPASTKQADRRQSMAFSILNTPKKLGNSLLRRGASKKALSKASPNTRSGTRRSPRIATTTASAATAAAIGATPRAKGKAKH
UniProt Q8N4N8: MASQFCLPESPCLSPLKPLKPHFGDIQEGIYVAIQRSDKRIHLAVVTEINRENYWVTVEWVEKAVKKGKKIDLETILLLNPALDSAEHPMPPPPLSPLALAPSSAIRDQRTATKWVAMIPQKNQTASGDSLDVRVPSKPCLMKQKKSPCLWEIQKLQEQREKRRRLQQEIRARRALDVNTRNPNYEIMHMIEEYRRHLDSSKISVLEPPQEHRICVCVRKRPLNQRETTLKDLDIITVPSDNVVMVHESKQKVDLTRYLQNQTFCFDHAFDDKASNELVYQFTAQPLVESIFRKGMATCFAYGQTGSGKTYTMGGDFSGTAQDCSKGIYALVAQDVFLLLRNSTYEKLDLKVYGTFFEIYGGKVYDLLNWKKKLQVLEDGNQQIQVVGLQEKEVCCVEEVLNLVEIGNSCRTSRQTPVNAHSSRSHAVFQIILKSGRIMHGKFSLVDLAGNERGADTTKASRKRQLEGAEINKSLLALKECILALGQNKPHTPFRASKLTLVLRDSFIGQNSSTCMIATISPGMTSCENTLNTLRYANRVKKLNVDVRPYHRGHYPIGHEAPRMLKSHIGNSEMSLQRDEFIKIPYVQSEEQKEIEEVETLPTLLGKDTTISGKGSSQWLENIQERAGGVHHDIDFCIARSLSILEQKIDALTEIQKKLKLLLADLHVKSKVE

How the values were obtained:
[1] = biological target: CEP170, endogenous (human (endogenous in H1650, H460)) (UniProt Q5SW79); assay: co-IP; endogenous proteins; control or TBK1-depleted (shRNA) cells synchronized by double-thymidine block; Kif2b blotted in CEP170 immunoprecipitates; NuMA with dynein
[2] = biological target: NuMA, endogenous (human (endogenous in H1650, H460)) (UniProt Q14980); assay: co-IP; endogenous proteins; 250 μg of NP-40 lysate and 1 μg antibody; asynchronously growing H1650 cells, and H460 cells released from G1/S (double-thymidine) block
[3] = biological target: CEP170, endogenous (human (endogenous in H1650, H460)) (UniProt Q5SW79); assay: as above
His6-tagged CEP170 [4] = biological target: His6-tagged CEP170 (UniProt Q5SW79); assay: pull-down; H460 or H1650 cell lysates incubated with His-tagged CEP170 beads along with 5 μM CEP or scrambled peptide; western blot; only the target purified
[5] = biological target: NuMA, endogenous (human (endogenous in H1650, H460)) (UniProt Q14980); assay: condition: only cells released from double-thymidine block in the presence of BX795 (0.5 μM); co-IP; endogenous proteins; H460 cells released from double-thymidine block in the presence of BX795
[6] = biological target: CEP170, endogenous (human (endogenous in H1650, H460)) (UniProt Q5SW79); assay: as above
[7] = biological target: NuMA, endogenous (human (endogenous in H1650, H460)) (UniProt Q14980); assay: proximity ligation; Duolink system on fixed cells; antibodies to TBK1 and CEP170 or NuMA; controls: TBK1 antibody alone or with normal IgG
[8] = biological target: CEP170, endogenous (human (endogenous in H1650, H460)) (UniProt Q5SW79); assay: as above
[9] = biological target: T1, TANK Binding Kinase 1 (TBK1), endogenous (human (endogenous in H1650, H460)) (UniProt Q9UHD2); assay: pull-down; competition: 5 μM synthetic CEP peptide added to H460 or H1650 lysate with His-tagged CEP170 beads; TBK1 on the beads by western blot; only the binder purified
T1 sequence: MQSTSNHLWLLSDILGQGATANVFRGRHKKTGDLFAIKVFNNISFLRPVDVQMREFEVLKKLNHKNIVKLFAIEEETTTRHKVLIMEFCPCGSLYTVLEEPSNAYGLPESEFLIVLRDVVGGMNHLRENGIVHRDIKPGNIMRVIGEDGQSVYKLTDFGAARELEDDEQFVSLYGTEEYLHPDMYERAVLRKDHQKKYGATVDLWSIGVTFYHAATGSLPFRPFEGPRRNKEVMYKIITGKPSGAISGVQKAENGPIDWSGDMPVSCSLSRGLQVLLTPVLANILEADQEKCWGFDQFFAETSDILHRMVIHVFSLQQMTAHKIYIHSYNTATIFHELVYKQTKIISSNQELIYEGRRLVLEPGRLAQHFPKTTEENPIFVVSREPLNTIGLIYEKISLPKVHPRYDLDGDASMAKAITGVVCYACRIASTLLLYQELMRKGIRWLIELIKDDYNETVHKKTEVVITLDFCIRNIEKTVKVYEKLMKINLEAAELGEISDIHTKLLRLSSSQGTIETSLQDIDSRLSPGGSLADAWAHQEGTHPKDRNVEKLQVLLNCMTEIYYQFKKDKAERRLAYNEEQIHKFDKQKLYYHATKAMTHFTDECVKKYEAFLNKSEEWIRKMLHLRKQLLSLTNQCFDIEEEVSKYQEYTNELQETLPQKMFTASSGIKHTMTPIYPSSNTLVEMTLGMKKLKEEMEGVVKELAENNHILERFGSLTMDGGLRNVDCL

[10] = biological target: T1, TANK Binding Kinase 1 (TBK1), endogenous (human (endogenous in H1650, H460)); assay: proximity ligation; competition in cells: 5 μM CEP-Pen for 24 h on H460 cells; TBK1-CEP170 foci read out; only the binder purified
His6-tagged CEP170 [11] = biological target: His6-tagged CEP170 (UniProt Q5SW79); assay: pull-down; 8 μl of 35S-methionine-labelled in vitro translated TBK1 on GST-NuMA, GST or His-CEP170 beads; 20 mM Tris-HCl pH 7.5, 0.5% NP-40, 50 mM KCl, 500 mM EDTA, 3 mg/ml BSA, 1 mM DTT, 0.5 mM PMSF; 2 h at 4 °C; autoradiography; only the target purified

Kif2b, endogenous (from UniProt Q8N4N8 1-673)
binding [1]: binds

B1: TANK Binding Kinase 1 (TBK1), endogenous (enzyme, UniProt Q9UHD2 1-729)
chain: T1 sequence
binding [2]: binds | binding [3]: binds | binding (His6-tagged CEP170 [4]): binds | binding [5]: no binding | binding [6]: no binding | binding [7]: binds | binding [8]: binds

ENAESEADFSIHF [CEP peptide]
binding [9]: binds

ENAESEADFSIHF [CEP170 peptide conjugated to penetratin (CEP-Pen)]
binding [10]: binds

B2: full length 35S-labelled TBK1 (enzyme, UniProt Q9UHD2 1-729)
chain: T1 sequence
modifications: 35S-methionine labelled
binding (His6-tagged CEP170 [11]): binds

B3: 35S-labelled TBK1 kinase domain (TBK1-1-294) (domain or fragment, UniProt Q9UHD2 1-294)
chain: MQSTSNHLWLLSDILGQGATANVFRGRHKKTGDLFAIKVFNNISFLRPVDVQMREFEVLKKLNHKNIVKLFAIEEETTTRHKVLIMEFCPCGSLYTVLEEPSNAYGLPESEFLIVLRDVVGGMNHLRENGIVHRDIKPGNIMRVIGEDGQSVYKLTDFGAARELEDDEQFVSLYGTEEYLHPDMYERAVLRKDHQKKYGATVDLWSIGVTFYHAATGSLPFRPFEGPRRNKEVMYKIITGKPSGAISGVQKAENGPIDWSGDMPVSCSLSRGLQVLLTPVLANILEADQEKCWG
modifications: 35S-methionine labelled
binding (His6-tagged CEP170 [11]): binds

B4: C terminus of TBK1 (residues 284-729) (domain or fragment, UniProt Q9UHD2 284-729)
chain: ILEADQEKCWGFDQFFAETSDILHRMVIHVFSLQQMTAHKIYIHSYNTATIFHELVYKQTKIISSNQELIYEGRRLVLEPGRLAQHFPKTTEENPIFVVSREPLNTIGLIYEKISLPKVHPRYDLDGDASMAKAITGVVCYACRIASTLLLYQELMRKGIRWLIELIKDDYNETVHKKTEVVITLDFCIRNIEKTVKVYEKLMKINLEAAELGEISDIHTKLLRLSSSQGTIETSLQDIDSRLSPGGSLADAWAHQEGTHPKDRNVEKLQVLLNCMTEIYYQFKKDKAERRLAYNEEQIHKFDKQKLYYHATKAMTHFTDECVKKYEAFLNKSEEWIRKMLHLRKQLLSLTNQCFDIEEEVSKYQEYTNELQETLPQKMFTASSGIKHTMTPIYPSSNTLVEMTLGMKKLKEEMEGVVKELAENNHILERFGSLTMDGGLRNVDCL
modifications: 35S-methionine labelled
binding (His6-tagged CEP170 [11]): no binding
